# The supplement of paper PMC10338343
# ± gives the standard deviation. This is a selection; strong and weak results do not stand in their true shares.
# Test system: MIWI (PIWIL1) piRISC loaded with L1MC piRNA (30 nt)
# Experiment: pre-steady-state target cleavage rate (min^-1); MIWI and MILI are mouse PIWI proteins and EfPiwi is from a freshwater sponge; tags in brackets are library labels; higher = faster piRNA-guided slicing of the target
# Settings: guide: L1MC piRNA 5'p-UAACUAAAUACUAUGCAAGCUGUAGGUCCU; auxiliary factor: 500 nM mouse GTSF1
# Description: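 Cleave-'n-Seq: a library of target RNAs (target site embedded in constant flanks, ACAGCATTCCGCGTTAGTGATATCCG... 5' flank; DNA-blocked outside the site) at 0.1 nM was incubated with 1 nM active mouse MILI or MIWI piRISC (synthetic 5'-monophosphorylated piRNA guide) with or without 500 nM mouse GTSF1 at 33 °C for 1 min to 16 h. Uncleaved targets were sequenced and normalised to non-target controls, and the pooled three trials were fitted to a burst-and-steady-state model to give the pre-steady-state cleavage rate (min^-1; k3 is constrained to at most 1e-4). Sequence is the target site only; target names encode pairing extent (gX:gY) and contiguous / 1-mismatch / 2-mismatch / bulge geometry. Fits with R² ≤ 0 are excluded.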
row,Sequence,pre-steady-state target cleavage rate
1,UCCUGCUACAGCAUGGAUAGUAUUUAGUUA,1.13 ± 0.15
2,UCCUGCUACAGCUAUGCAUAGUAUUUAGUUA,0.642 ± 0.045
3,UCCUCCUACAGCUUGCAUAGUAUUAAGUUA,0.435 ± 0.032
4,UCCACCUACAGCUUGCAAUGUAUUUUCAAA,0.0198 ± 0.0072
5,UCCUGGUAGAGCUUGCAAAGUAUUUAGUUA,0.776 ± 0.035
6,UCGAGGUACAGCUUGCAUAGUAUUUACAAA,0.472 ± 0.062
7,UCCUGCAACAGCUUGCAUAGUAUUUUGUUA,0.657 ± 0.056
8,UCCUGCUACAGUCUUGCAUAGUAUUUAGUUA,0.643 ± 0.033
9,UGGACCUACAGCUUGCAUAGUAUGUAGUUA,0.332 ± 0.041
10,UCCUGGUACAGCUUGCAUAGUAUUAUCUUA,0.163 ± 0.037
11,UCGACCUACAGCUUGCAUAGUAUUUACUUA,0.373 ± 0.03
12,UCGACCUACAAGCUUGCAUAGUAUUUAGUUA,1.15 ± 0.046
13,AGGAGCUACAGCUUGCAUAGUAUUUAGUAA,1.02 ± 0.092
14,UCGACCUACAGCUUGCAUAGUUUUUAGUAA,0.318 ± 0.025
15,UCGACCUACUGCUUGCAUAGUAUUUUGUUA,0.809 ± 0.027
16,UCCUGGAUGAGUUGCAUAGUAUUUAGUUA,0.0281 ± 0.0058
17,UCCUACUACAGCUUGCAUAGUAUUUAGUUA,0.886 ± 0.036
18,UGGACGUACAGCUUGCAAAGUAUUUAGUUA,1.3 ± 0.045
19,UCCUGGAUGUCGAACGUAUCUAUUAAGUUA,< 0.0001
20,UCCUGGAACAGCUUGCAUAGUAAUUAGAUA,0.32 ± 0.049
21,UGGACCUACAGCUUGCUUAGUAUUUAGAAA,0.295 ± 0.035

# Same assay, conditions: guide: L1MC piRNA 5'p-UAACUAAAUACUAUGCAAGCUGUAGGUCCU; auxiliary factor: none (no GTSF1)
row,Sequence,pre-steady-state target cleavage rate
1,UCCUGCUACAGCAUGGAUAGUAUUUAGUUA,0.015 ± 0.0025
2,UCCUGCUACAGCUAUGCAUAGUAUUUAGUUA,0.0116 ± 0.0033
3,UCCUCCUACAGCUUGCAUAGUAUUAAGUUA,0.017 ± 0.0042
4,UCCUGGUAGAGCUUGCAAAGUAUUUAGUUA,0.0289 ± 0.0077
5,UCGAGGUACAGCUUGCAUAGUAUUUACAAA,0.00279 ± 0.0026
6,UCCUGCAACAGCUUGCAUAGUAUUUUGUUA,0.0348 ± 0.0074
7,UCCUGCUACAGUCUUGCAUAGUAUUUAGUUA,0.0274 ± 0.005
8,UGGACCUACAGCUUGCAUAGUAUGUAGUUA,0.0171 ± 0.0041
9,UCCUGGUACAGCUUGCAUAGUAUUAUCUUA,0.00345 ± 0.0034
10,UCGACCUACAGCUUGCAUAGUAUUUACUUA,0.0486 ± 0.0097
11,UCGACCUACAAGCUUGCAUAGUAUUUAGUUA,0.0672 ± 0.014
12,AGGAGCUACAGCUUGCAUAGUAUUUAGUAA,0.0616 ± 0.012
13,UCGACCUACAGCUUGCAUAGUUUUUAGUAA,0.0281 ± 0.0079
14,UCGACCUACUGCUUGCAUAGUAUUUUGUUA,0.059 ± 0.009
15,UCCUACUACAGCUUGCAUAGUAUUUAGUUA,0.057 ± 0.0085
16,UGGACGUACAGCUUGCAAAGUAUUUAGUUA,0.0558 ± 0.0096
17,UCCUGGAUGUCGAACGUAUCUAUUAAGUUA,< 0.0001
18,UCCUGGAACAGCUUGCAUAGUAAUUAGAUA,0.00963 ± 0.0031
19,UGGACCUACAGCUUGCUUAGUAUUUAGAAA,0.00593 ± 0.0019
